The list shows a part of the results. The list includes weakly bound sequences.

In this assay the target is T1, MBP-FoxP3dN (UniProt Q99JB6).
T1 sequence: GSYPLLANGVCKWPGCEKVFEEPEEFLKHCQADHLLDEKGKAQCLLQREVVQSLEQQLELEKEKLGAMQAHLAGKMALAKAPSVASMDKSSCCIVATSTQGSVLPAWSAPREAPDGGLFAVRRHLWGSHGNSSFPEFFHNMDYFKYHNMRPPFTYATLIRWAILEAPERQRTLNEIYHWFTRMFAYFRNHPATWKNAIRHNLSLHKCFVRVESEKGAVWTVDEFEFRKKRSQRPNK
In words: PD-seq (MBP pull-down with sequencing). The conditions noted are these: 20 mM Tris-HCl pH 7.5, 100 mM NaCl, 1.5 mM MgCl2, 0.4 uM protein, 0.1 uM dsDNA library, 30 min, room temperature, amylose pull-down; high values mean tight binding; double strand, one strand shown.
For the sequence “GATGATTGTTCTCCCAGCTGATGAATTATTCCACTCGAGTAAACAAATTTTCCTAATCTTTCTGTTCAAGCGCCATCTAC”, the binding signal (RPM ratio (pull-down/input)) is 0.377.

Turning to “GATGATTGTTCTCCCAGCTGATGAATTAAGCGGCTCGAGTAAACAAATTTTCCTAATCTTTCTGTTCAAGCGCCATCTAC”, the binding signal (RPM ratio (pull-down/input)) came out at 0.629.

“GATGATTGTTCTCCCAGCTGATGAATTCACATGTTCGAGTAAACAAATTTTCCTAATCTTTCTGTTCAAGCGCCATCTAC”: the binding signal (RPM ratio (pull-down/input)) amounted to 0.611.

Regarding “GATGATTGTTCTCCCAGCTGATGAATTTACAGCCTCGAGTAAACAAATTTTCCTAATCTTTCTGTTCAAGCGCCATCTAC”, the binding signal (RPM ratio (pull-down/input)) came to 0.597.

Turning to “GATGATTGTTCTCCCAGCTGATGAATTGAGAGCATCGAGTAAACAAATTTTCCTAATCTTTCTGTTCAAGCGCCATCTAC”, the binding signal (RPM ratio (pull-down/input)) is 0.774.

As to “GATGATTGTTCTCCCAGCTGATGAATTGGGCCGCTCGAGTAAACAAATTTTCCTAATCTTTCTGTTCAAGCGCCATCTAC”, the binding signal (RPM ratio (pull-down/input)) worked out at 1.

In the case of “GATGATTGTTCTCCCAGCTGATGAATTTTGCTTCTCGAGTAAACAAATTTTCCTAATCTTTCTGTTCAAGCGCCATCTAC”, the binding signal (RPM ratio (pull-down/input)) stood at 2.58.

For the sequence “GATGATTGTTCTCCCAGCTGATGAATTCCAATTCTCGAGTAAACAAATTTTCCTAATCTTTCTGTTCAAGCGCCATCTAC”, the binding signal (RPM ratio (pull-down/input)) came to 0.503.

In the case of “GATGATTGTTCTCCCAGCTGATGAATTTTGGGCGTCGAGTAAACAAATTTTCCTAATCTTTCTGTTCAAGCGCCATCTAC”, the binding signal (RPM ratio (pull-down/input)) came out at 0.551.

“GATGATTGTTCTCCCAGCTGATGAATTACGGAGGTCGAGTAAACAAATTTTCCTAATCTTTCTGTTCAAGCGCCATCTAC”: the binding signal (RPM ratio (pull-down/input)) was 0.267.

Regarding “GATGATTGTTCTCCCAGCTGATGAATTCGCGTTGTCGAGTAAACAAATTTTCCTAATCTTTCTGTTCAAGCGCCATCTAC”, the binding signal (RPM ratio (pull-down/input)) is 1.3.

In the case of “GATGATTGTTCTCCCAGCTGATGAATTTTCTGTGTCGAGTAAACAAATTTTCCTAATCTTTCTGTTCAAGCGCCATCTAC”, the binding signal (RPM ratio (pull-down/input)) turned out to be 0.415.

For “GATGATTGTTCTCCCAGCTGATGAATTTTGAGGCTCGAGTAAACAAATTTTCCTAATCTTTCTGTTCAAGCGCCATCTAC”, the binding signal (RPM ratio (pull-down/input)) worked out at 0.501.

“GATGATTGTTCTCCCAGCTGATGAATTGCGCTAGTCGAGTAAACAAATTTTCCTAATCTTTCTGTTCAAGCGCCATCTAC”: the binding signal (RPM ratio (pull-down/input)) came out at 1.83.

“GATGATTGTTCTCCCAGCTGATGAATTCTCCTGTTCGAGTAAACAAATTTTCCTAATCTTTCTGTTCAAGCGCCATCTAC”: the binding signal (RPM ratio (pull-down/input)) was found to be 0.256.

With “GATGATTGTTCTCCCAGCTGATGAATTCAGCAGTTCGAGTAAACAAATTTTCCTAATCTTTCTGTTCAAGCGCCATCTAC”, the binding signal (RPM ratio (pull-down/input)) stood at 0.768.

In the case of “GATGATTGTTCTCCCAGCTGATGAATTCTTACACTCGAGTAAACAAATTTTCCTAATCTTTCTGTTCAAGCGCCATCTAC”, the binding signal (RPM ratio (pull-down/input)) worked out at 0.336.

Consider “GATGATTGTTCTCCCAGCTGATGAATTATTGATGTCGAGTAAACAAATTTTCCTAATCTTTCTGTTCAAGCGCCATCTAC”, for which the binding signal (RPM ratio (pull-down/input)) amounted to 1.3.

Turning to “GATGATTGTTCTCCCAGCTGATGAATTTCTAACGTCGAGTAAACAAATTTTCCTAATCTTTCTGTTCAAGCGCCATCTAC”, the binding signal (RPM ratio (pull-down/input)) came out at 0.285.

Turning to “GATGATTGTTCTCCCAGCTGATGAATTGTGCTAGTCGAGTAAACAAATTTTCCTAATCTTTCTGTTCAAGCGCCATCTAC”, the binding signal (RPM ratio (pull-down/input)) came out at 2.26.

As to “GATGATTGTTCTCCCAGCTGATGAATTATCAGAATCGAGTAAACAAATTTTCCTAATCTTTCTGTTCAAGCGCCATCTAC”, the binding signal (RPM ratio (pull-down/input)) is 0.21.

In the case of “GATGATTGTTCTCCCAGCTGATGAATTCTCTCCCTCGAGTAAACAAATTTTCCTAATCTTTCTGTTCAAGCGCCATCTAC”, the binding signal (RPM ratio (pull-down/input)) turned out to be 0.2.

On to “GATGATTGTTCTCCCAGCTGATGAATTATGCCATTCGAGTAAACAAATTTTCCTAATCTTTCTGTTCAAGCGCCATCTAC”, for which the binding signal (RPM ratio (pull-down/input)) was 5.9.

As for “GATGATTGTTCTCCCAGCTGATGAATTGAGAAGATCGAGTAAACAAATTTTCCTAATCTTTCTGTTCAAGCGCCATCTAC”, the binding signal (RPM ratio (pull-down/input)) came out at 0.167.

As to “GATGATTGTTCTCCCAGCTGATGAATTCGACTGGTCGAGTAAACAAATTTTCCTAATCTTTCTGTTCAAGCGCCATCTAC”, the binding signal (RPM ratio (pull-down/input)) stood at 0.344.

Take “GATGATTGTTCTCCCAGCTGATGAATTAACATGGTCGAGTAAACAAATTTTCCTAATCTTTCTGTTCAAGCGCCATCTAC”: the binding signal (RPM ratio (pull-down/input)) came to 0.36.

For “GATGATTGTTCTCCCAGCTGATGAATTTCACCATTCGAGTAAACAAATTTTCCTAATCTTTCTGTTCAAGCGCCATCTAC”, the binding signal (RPM ratio (pull-down/input)) amounted to 0.441.

Turning to “GATGATTGTTCTCCCAGCTGATGAATTTTCGGTTTCGAGTAAACAAATTTTCCTAATCTTTCTGTTCAAGCGCCATCTAC”, the binding signal (RPM ratio (pull-down/input)) turned out to be 0.4.

Take “GATGATTGTTCTCCCAGCTGATGAATTCCATGACTCGAGTAAACAAATTTTCCTAATCTTTCTGTTCAAGCGCCATCTAC”: the binding signal (RPM ratio (pull-down/input)) is 0.348.

With “GATGATTGTTCTCCCAGCTGATGAATTGGAGGGTTCGAGTAAACAAATTTTCCTAATCTTTCTGTTCAAGCGCCATCTAC”, the binding signal (RPM ratio (pull-down/input)) stood at 0.358.

As for “GATGATTGTTCTCCCAGCTGATGAATTAAGTCTCTCGAGTAAACAAATTTTCCTAATCTTTCTGTTCAAGCGCCATCTAC”, the binding signal (RPM ratio (pull-down/input)) amounted to 0.779.

With “GATGATTGTTCTCCCAGCTGATGAATTGTGTGCCTCGAGTAAACAAATTTTCCTAATCTTTCTGTTCAAGCGCCATCTAC”, the binding signal (RPM ratio (pull-down/input)) amounted to 2.26.

The values above are taken from paper PMC12820563.
